Experimental data: PMC13423814
Some entries of the source have several records that differ or are many. The list is limited to them. An entry can have further records. Some protein pairs were linked at several places, one record each.

Assays:
HNRNPC = HNRNPC (UniProt P07910); details: DSSO, in cells
PSPC1 = PSPC1 (UniProt Q8WXF1); details: DSSO

Substance | cross-linked residues (HNRNPC) | cross-linked residues (PSPC1)
HNRNPDL, O14979 | S300 - K176 and K302 - K8 | –
NONO, Q15233 | – | K99 - K8 and K99 - K14 and K249 - K344
